Our source for the relative growth values is the supplement of paper PMC9446081.

In all, about 39,000 compounds went through this assay and about 220 (0.56%) showed activity. Some of the results follow.
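Note: static incubation at 37 °C against the wild-type strain, values averaged over two biological replicates.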

This experiment concerns Escherichia coli K-12 BW25113. The experiment in a line: relative growth (OD600 normalised to plate interquartile mean) (fraction); higher = less growth inhibition, active = 0.2 or less. Particulars: 50 µM; LB; incubation time: overnight (16-24 h).
On to `CO[C@H]1O[C@H](CO)[C@@H](OC(=O)Nc2ccccc2-c2ccccc2)[C@H](OC(=O)Nc2ccc3c(c2)OCO3)[C@@H]1OC(=O)Nc1ccc2c(c1)OCO2`, for which the relative growth was inactive: 1.04.
With `C[C@H]1CN([C@@H](C)CO)C(=O)c2cc(NS(=O)(=O)c3ccccc3)ccc2O[C@H]1CN(C)CC1CC1`, the relative growth is inactive: 1.04.
For the molecule `CCN(CC)CCNc1ccc(COc2cccc(/C=C(C)/C=C/C(=O)NO)c2)c2sc3ccccc3c(=O)c12`, the relative growth was inactive: 0.947.
Consider `C=C(CO)C(=O)O[C@H]1C[C@@]2(C)OC(=O)/C(=C/C)[C@]2(O)CC[C@@]2(C)CC(=O)[C@]1(C(=C)C(=O)OC)O2`, for which the relative growth was inactive: 1.01.
For `CCCNC(=O)N(C)C[C@@H]1Oc2cc(-c3ccc(C)cc3)ccc2S(=O)(=O)N([C@H](C)CO)C[C@@H]1C`, the relative growth was inactive: 1.02.
As for `O=C(O)CCN1C(=O)NC2(CCCC2)C1=O`, the relative growth is inactive: 0.998.
Take `COc1cc(O)c(C(=O)O)c(O)c1`: the relative growth is inactive: 0.939.
For the molecule `C[C@@H]1CCCCO[C@H](CN(C)S(=O)(=O)c2cccs2)[C@@H](C)CN([C@H](C)CO)C(=O)c2cc(NC(=O)Nc3ccccc3)ccc2O1`, the relative growth is inactive: 0.975.
`C[C@@H]1CCCCO[C@H](CN(C)Cc2ccc3c(c2)OCO3)[C@H](C)CN([C@@H](C)CO)C(=O)c2cc(NS(=O)(=O)c3cccs3)ccc2O1`: the relative growth was inactive: 1.01.
Turning to `COCCOC(=O)N1C(=O)[C@@]2(c3cc(C#CC4(O)CCCCCC4)ccc31)[C@H](c1ccc(O)cc1)N1[C@H](c3ccccc3)[C@H](c3ccccc3)OC(=O)[C@H]1[C@@H]2C(N)=O`, the relative growth was inactive: 1.03.
The same measure for `C[C@@H]1CCCCO[C@H](CN(C)C(=O)C2CCCCC2)[C@@H](C)CN([C@@H](C)CO)C(=O)c2cc(NC(=O)Cc3ccccc3)ccc2O1`: inactive: 0.972; for `C[C@H](CO)N1C[C@H](C)[C@@H](CN(C)C(=O)Nc2ccc(F)cc2)Oc2c(NC(=O)Nc3cccc4ccccc34)cccc2C1=O`: inactive: 0.995; for `C[C@@H]1CCCCO[C@H](CN(C)C(=O)NC2CCCCC2)[C@@H](C)CN([C@H](C)CO)C(=O)c2cc(NS(=O)(=O)c3ccccc3)ccc2O1`: inactive: 0.983.
Consider `C[C@@H]1CN([C@@H](C)CO)C(=O)c2cc(NS(C)(=O)=O)ccc2O[C@@H](C)CCCCO[C@H]1CN(C)CC1CC1`, for which the relative growth is inactive: 0.992.
For `NCc1ccc2occc2c1`, the relative growth was inactive: 0.998.
For `C[C@H]1CN([C@@H](C)CO)C(=O)Cc2cc(NC(=O)Nc3cccc4ccccc34)ccc2O[C@@H]1CN(C)Cc1ccc(C(=O)O)cc1`, the relative growth was inactive: 1.06.
As for `Cc1ccc(S(=O)(=O)N(C)C[C@@H]2Oc3ccc(NS(=O)(=O)c4ccccc4)cc3CC(=O)N([C@@H](C)CO)C[C@H]2C)cc1`, the relative growth was inactive: 1.01.
For `CCN(CC)CCNc1ccc(CO)c2sc3ccccc3c(=O)c12`, the relative growth was inactive: 1.03.
Under `C[C@@H]1CN([C@H](C)CO)C(=O)c2cc(NC(=O)c3ccncc3)ccc2O[C@H]1CN(C)Cc1ccc(C(=O)O)cc1` stands inactive: 0.998; under `COc1ccc(C#N)nc1`, inactive: 0.95; under `COc1ccccc1CNC(=O)C[C@@H]1C[C@H]2c3cc(NC(=O)c4ccc5c(c4)OCO5)ccc3O[C@H]2[C@H](CO)O1`, inactive: 1.05.
Turning to `COc1ccc(CN(C)C[C@@H]2Oc3ccc(NC(=O)Cn4cnnn4)cc3CC(=O)N([C@@H](C)CO)C[C@@H]2C)cc1`, the relative growth was inactive: 0.996.
The same measure for `COC(=O)NN=Cc1c[n+]([O-])c2ccccc2[n+]1[O-]`: inactive: 0.574; for `O=C(N/N=C/c1ccc(CO)o1)c1ccccn1`: inactive: 1; for `C[C@@H]1CN([C@H](C)CO)C(=O)Cc2cc(NC(=O)Nc3ccc(C(F)(F)F)cc3)ccc2O[C@H]1CN(C)C(=O)Nc1cccc2ccccc12`: inactive: 1.04.
Under `Cc1ccc(S(=O)(=O)N(C)C[C@@H]2Oc3ccc(NC(=O)CCCN(C)C)cc3CC(=O)N([C@@H](C)CO)C[C@H]2C)cc1` stands inactive: 0.999.
As for `C[C@@H]1CN([C@H](C)CO)C(=O)c2cc(NC(=O)NC3CCCCC3)ccc2O[C@@H](C)CCCCO[C@@H]1CN(C)C(=O)Cc1ccccc1`, the relative growth is inactive: 1.04.
The same measure for `O=C(C[C@@H]1CC[C@H]2[C@@H](COC[C@@H](O)CN2C(=O)Nc2ccc3c(c2)OCO3)O1)N1CCN(c2ccccc2)CC1`: inactive: 0.992; for `C[C@@H]1CCCCO[C@@H](CN(C)Cc2ccccc2)[C@H](C)CN([C@H](C)CO)C(=O)c2cc(NC(=O)Nc3cccc4ccccc34)ccc2O1`: inactive: 0.995; for `Cc1ccc(S(=O)(=O)Nc2ccc3c(c2)C(=O)N([C@H](C)CO)C[C@H](C)[C@@H](CN(C)Cc2ccc4c(c2)OCO4)OCCCC[C@H](C)O3)cc1`: inactive: 0.994.
The same measure for `Cc1cc2c(cc1C)N[C@@H](CC(N)=O)C(=O)N2`: inactive: 0.99.
On to `C[C@@H]1CCCCO[C@@H](CN(C)CC2CCCCC2)[C@@H](C)CN([C@H](C)CO)C(=O)c2cc(NC(=O)NC3CCCCC3)ccc2O1`, for which the relative growth is inactive: 0.99.
For the molecule `Nc1ncnc(NCCN2CCOCC2)c1[N+](=O)[O-]`, the relative growth was inactive: 1.02.
The same measure for `Cc1noc(C)c1S(=O)(=O)Nc1ccc2c(c1)CC(=O)N([C@@H](C)CO)C[C@H](C)[C@@H](CN(C)S(=O)(=O)c1cn(C)cn1)O2`: inactive: 1.01; for `COc1ccc(S(=O)(=O)N(C)C[C@@H]2Oc3ccc(NC(=O)Cc4ccccc4)cc3C(=O)N([C@H](C)CO)C[C@@H]2C)cc1`: inactive: 0.988; for `C[C@@H]1CN([C@@H](C)CO)C(=O)Cc2cc(NC(=O)Nc3cccc4ccccc34)ccc2O[C@@H]1CN(C)Cc1ccc(C(=O)Nc2ccccc2N)cc1`: inactive: 1.02.
Consider `O=C(NCCCN1CCOCC1)[C@@H]1N[C@@H]2c3ccc(C4=CCCCC4)c(=O)n3C[C@@H]2[C@H]1CO`, for which the relative growth was inactive: 0.983.
On to `COc1ccc(NC(=O)Nc2ccc3c(c2)C(=O)N([C@H](C)CO)C[C@H](C)[C@@H](CN(C)C(=O)Nc2c(C)noc2C)OCCCC[C@H](C)O3)cc1`, for which the relative growth was inactive: 0.987.
With `CS(=O)(=O)CCC#N`, the relative growth was inactive: 1.
On to `C[C@@H]1CN([C@H](C)CO)C(=O)c2cc(NS(=O)(=O)c3ccccc3)ccc2O[C@@H]1CN(C)S(=O)(=O)c1ccc(F)cc1`, for which the relative growth was inactive: 1.04.
